{
  "source": "paper PMC12136788",
  "binders": {"B1": {"name": "ENSG00000198589:be:win_4501|CDS|ENSG00000198589|bound_else_gene|NA|bound_elsewhere_windowed (ssRNA)", "RNA": "GGGAGUUCUACAGUCCGACGAUCAGAGAUCUUGACAGGCUUCUACAGGACAUGGAUAUUAAUCGGCUUAGGGCAGUUGUUUUCAGAGACAUAGAGGAUAGCAAACAAGCUCAAUUUUUAGCCUUGGCAGUAGUAUACUUUAUCCAACAGAGGAUUGAGCAUCA"}, "B2": {"name": "chr5:133074000:133074114:+|CDS|ENSG00000170606|unk|FALSE|unique (ssRNA)", "RNA": "GGGAGUUCUACAGUCCGACGAUCUCUUGCAUAUGGAAUCUAUAAGCAGGAUCUUCCUGCCUUAGAAGAGAAACCAAGAAAUGUAGUUUUUGUAGACAUGGGCCACUCUGCUUAUCAAGUUUCUGUAUGUGCAUUUAAUAGAGGCAACAGAGGAUUGAGCAUCA"}, "B3": {"name": "ENSG00000107863:be:win_5851|CDS_3pUTR|ENSG00000107863|bound_else_gene|NA|bound_elsewhere_windowed (ssRNA)", "RNA": "GGGAGUUCUACAGUCCGACGAUCAAAGCAGAGUUUCAUCCCUGUCUUUAAACUGGGGGUAUGUCCACUCUAGCAAGUAAAAAAACUACUGUUACACGUUCCAGUAACUCUGUCAAUAUUUUCUUGUAUCAGAAUUGUUAUUAUCAACAGAGGAUUGAGCAUCA"}, "B4": {"name": "chr11:8612036:8617995:-|three_prime_utr|ENSG00000166436|control|control|control (ssRNA)", "RNA": "GGGAGUUCUACAGUCCGACGAUCCCCAUACUGUCGACCAUUCCUCCCCAUCUUGCAGCUUAUCCUCUUCAGAGUGUGGAUGGUAGAUGAGUCUUGUUGAACUGUGUAGUGCUCUUCUUUGCCAUUUGCAUCUACAGCAUUUAUCAACAGAGGAUUGAGCAUCA"}, "B5": {"name": "chr7:139045324:139045425:-|3pUTR|ENSG00000105939|msi1|FALSE|bound_elsewhere (ssRNA)", "RNA": "GGGAGUUCUACAGUCCGACGAUCAGUUCAAAACCGCUGUCAUGGCCCCAUGUGAUCUCUCCCUCCCCUACCCCUCUAUCAUUUAGUUUCUUCUGCGCAAGCCACUCUGGCUUCCUUUCAGUUUUGUGGUUCCCAUUUUUAGCUCAACAGAGGAUUGAGCAUCA"}, "B6": {"name": "ENSG00000078043:stop:overlap|stop_codon|ENSG00000078043|stop_codon|NA|stop_codon (ssRNA)", "RNA": "GGGAGUUCUACAGUCCGACGAUCGGAAAUGCAUCUUUAUGUCAGAAACACAAAGCAGCCCAACCAAAGGGUUUGUUAAUUUAUAGUUCACUAUUGUUCAUUACCCUUGCAACUAAUUGCUCUUGGAUAGAUUUAUAAAUGUCUCAACAGAGGAUUGAGCAUCA"}, "B7": {"name": "ENSG00000198589:be:win_3451|CDS|ENSG00000198589|bound_else_gene|NA|bound_elsewhere_windowed (ssRNA)", "RNA": "GGGAGUUCUACAGUCCGACGAUCGAUGACAAAUUAAUAUUUCAAGAAGGAAAACCUGUUACUGAAAAGCAAACUGAUACUGAAACUCAAGAUUCUAAAGAUUCUGGAAUUCAGACUAUGACAGCAUCAGGGUCUUCAGCUAUGCAACAGAGGAUUGAGCAUCA"}, "B8": {"name": "chr6:75256125:75256201:-|CDS_3pUTR|ENSG00000112697|msi1_unk|total|mutant (ssRNA)", "RNA": "GGGAGUUCUACAGUCCGACGAUCUUUGGGGAUUGCUUACAUCGCUGUUGGAUCCAUCUCCUUCCUUCUGGGAGUUGUACUGCCCGUAAUUAAUCAUAAAUACCGAAACAGCCGUAAUACAGCUGACAUUACCAUUUAAUUUUACAACAGAGGAUUGAGCAUCA"}, "B9": {"name": "chr14:106537809:106538116:-|CDS|ENSG00000211964|control|control|control (ssRNA)", "RNA": "GGGAGUUCUACAGUCCGACGAUCUGGGUCCGCCAGGCUCCAGGGAAGGGGCUGGAGUGGGUUUCAUACAUUAGUAGUAGUGGUAGUACCAUAUACUACGCAGACUCUGUGAAGGGCCGAUUCACCAUCUCCAGAGACAACGCCCAACAGAGGAUUGAGCAUCA"}, "B10": {"name": "chr7:13894654:13894755:-|3pUTR|ENSG00000006468|msi1|total|mutant (ssRNA)", "RNA": "GGGAGUUCUACAGUCCGACGAUCUAUUCUCUUUCAUGCUGAAUUUACUAUGACCAUUUAUAAGCAGUGCAGUUAACUACAGACCGCAUUUCAGGACAAAACCGAUGACUCAAACCAUUUAUUGCUUAAAAAACCGCUUACGCCCAACAGAGGAUUGAGCAUCA"}, "B11": {"name": "ENSG00000198589:be:win_9301|3pUTR|ENSG00000198589|bound_else_gene|NA|bound_elsewhere_windowed (ssRNA)", "RNA": "GGGAGUUCUACAGUCCGACGAUCAGUACCAAAGCUCACUACUGCGGUUUGCCUGUGCCUGGACAAUGAGGCGGAGCCACUGUUGUUUUGUUGGGGCACCCCCUUCCCUCCCCGGGUUUGCAAAUAGAGGCUACCGGGUGCUGUCAACAGAGGAUUGAGCAUCA"}, "B12": {"name": "chr15:77046177:77046188:-|3pUTR|ENSG00000140391|msi1_unk|total|mutant (ssRNA)", "RNA": "GGGAGUUCUACAGUCCGACGAUCUUAAUCAAAGUUGGCUUUACCGGAGGAGUAUAAUGUAUGCACUACUGUUUUAAAAGAAUCCGUGUGAGUGUGUUUUUGUAUGAAUGAGCCCAUUCAUGGUAAGUCUUAAGCUUGUUGGAACAACAGAGGAUUGAGCAUCA"}, "B13": {"name": "ENSG00000070961:be:win_3301|CDS|ENSG00000070961|bound_else_gene|NA|bound_elsewhere_windowed (ssRNA)", "RNA": "GGGAGUUCUACAGUCCGACGAUCCGGCGUGGCCAAAUCUUGUGGUUUAGAGGUCUGAACAGAAUCCAAACACAGAUUCGAGUGGUGAAUGCAUUUCGUAGUUCUUUAUAUGAAGGGUUAGAAAAACCGGAAUCAAGAAGUUCGCAACAGAGGAUUGAGCAUCA"}, "B14": {"name": "chrX:101625945:101626046:+|CDS|ENSG00000102401|unk|FALSE|unique (ssRNA)", "RNA": "GGGAGUUCUACAGUCCGACGAUCAGGUUCACUUUUUUUCUUUUUAAAAGAAUUUCAAGUGUGUGCUGAUAAGGUUCUGGGAAUAGAAAGUCACCAUGAUUUUUUGGUGAAAGUAAAAGUUGGAAAAUUCAUGGCCAAACUUGCCAACAGAGGAUUGAGCAUCA"}, "B15": {"name": "chr2:37256661:37256929:-|CDS|ENSG00000115825|control|control|control (ssRNA)", "RNA": "GGGAGUUCUACAGUCCGACGAUCAGGAACUCCAGCAUACUUAGCCCCUGAAGUUCUCCGGAGCAAAGGUUACAACCGUUCCCUAGAUAUGUGGUCAGUGGGAGUUAUCAUCUAUGUGAGCCUCAGUGGCACAUUUCCUUUUAACAACAGAGGAUUGAGCAUCA"}, "B16": {"name": "chr12:76028832:76028933:-|3pUTR|ENSG00000139289|msi1|FALSE|unique (ssRNA)", "RNA": "GGGAGUUCUACAGUCCGACGAUCAAAGGAAAAGACUGGAUAAACACAGGAUUUUCAGUAAGAAAACAACCCCAGUCUUGUCUUAGAAGCCACUUGUUGAGGAGUCUGUUGGGGGAAAAAAGAGGAUAUGCUUUUAAAGGUAGACAACAGAGGAUUGAGCAUCA"}, "B17": {"name": "chr6:41099391:41099486:+|3pUTR|ENSG00000001167|msi1_unk|total|mutant (ssRNA)", "RNA": "GGGAGUUCUACAGUCCGACGAUCAGUGCUUAAGCUGCCAACAGUCCGAAGAUGCUAUUUAUUUGUGUCUGUAAGUUUGUACACCGUAAUGCCAGCCUUGUUGCUGAAUUUUUUAUUUGGGGGGAGAUGACUUUGAAUUUUGUUCAACAGAGGAUUGAGCAUCA"}, "B18": {"name": "chr19:19111484:19111585:+|3pUTR|ENSG00000181035|msi1|total|mutant (ssRNA)", "RNA": "GGGAGUUCUACAGUCCGACGAUCAGCCUCAUGUCUAUCCCCGACCCUGCAAGCAGCUGGGUCCCCAAGAGUGCAUCUCCCCCCCGAGUUGCCUGCCCAUGCCCACCUGCUUUGUAACCUUCCCAGGAGAUUCAUGCUUGCUCUCAACAGAGGAUUGAGCAUCA"}, "B19": {"name": "chr15:82681419:82681580:-|CDS|ENSG00000103723|control|control|control (ssRNA)", "RNA": "GGGAGUUCUACAGUCCGACGAUCCAGUGCCCUCCGUGUCCUCUCUAGCAUCCGUGUGCCCAUCAUAGUGCCCAUCAUGAUGCUAGCUAUCAAGGAAGCCGCCUCGGACAUGUCACCCUAUGUGCGGAAAACAGCUGCCCACGCCAACAGAGGAUUGAGCAUCA"}, "B20": {"name": "chr7:20410991:20411126:+|3pUTR|ENSG00000105855|msi1|FALSE|unique (ssRNA)", "RNA": "GGGAGUUCUACAGUCCGACGAUCAAAUUCUGCCUCAAGCAAAGUACCACAUUUUGAAUGUUUUCUUAGAUUUUGAUUGCAAGUAGAUAUCAGCAUUUUUUAAAUGAAAAGCUAUAUUAUCUUCUCCCUUCAAGGCAGCCUAAGCAACAGAGGAUUGAGCAUCA"}, "B21": {"name": "chr17:58495858:58495960:-|CDS|ENSG00000108389|unk|total|mutant (ssRNA)", "RNA": "GGGAGUUCUACAGUCCGACGAUCAGAAGAGACUAAGGGACCAGCUCCAGACCCUUCUGCCCAGGAUGAGCUGGGCCGGACUUCCGAUGGCACCGGGGAGCCACCUGAACAUUGUCCUGAAACAGAAGCUGUCAGUGCACUCUCCAACAGAGGAUUGAGCAUCA"}, "B22": {"name": "chr9:26926431:26926536:-|CDS|ENSG00000137055|unk|FALSE|bound_elsewhere (ssRNA)", "RNA": "GGGAGUUCUACAGUCCGACGAUCAGAGGUUUGGCAAUUUUGAGUGAAACAGAAUUUCUUUCCUGUGCAAAUGAUGCUAGUAUUAGAAGGUGGCAAAUCACUGGCGAGUGUCUUGAAGUAUAUUAUGGACAUACAAAUUAUAUUCAACAGAGGAUUGAGCAUCA"}},
  "note": "This is one part of the list.",
  "data": [
    {"molecular_target": "MSI1 full-length (mouse, UniProt Q61474 1-362)", "sequence (Q61474 whole entry)": "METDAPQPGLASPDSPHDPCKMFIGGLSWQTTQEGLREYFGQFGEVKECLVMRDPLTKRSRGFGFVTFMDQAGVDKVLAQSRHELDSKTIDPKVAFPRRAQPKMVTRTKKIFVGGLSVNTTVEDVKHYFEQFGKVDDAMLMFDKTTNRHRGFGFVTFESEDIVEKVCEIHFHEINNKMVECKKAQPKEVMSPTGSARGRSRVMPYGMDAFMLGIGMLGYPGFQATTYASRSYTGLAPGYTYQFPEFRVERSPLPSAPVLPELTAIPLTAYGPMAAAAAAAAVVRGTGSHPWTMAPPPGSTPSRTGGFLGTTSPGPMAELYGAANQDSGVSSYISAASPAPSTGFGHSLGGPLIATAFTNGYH", "experiment": "nsRBNS (natural sequence RNA bind-n-seq); RBNS binding buffer (assumed for nsRBNS): 25 mM Tris pH 7.5, 150 mM KCl, 3 mM MgCl2, 0.01% Triton X-100, 500 ug/ml BSA, 20 U/ml SUPERase-In, 4 C; UNK is unkempt and MSI1 is Musashi-1; names of the RNAs are library labels; protein concentration not given here; high values mean tight binding", "units": {"binding signal": "enrichment R"}, "values": [
      {"binder": "B1", "binding signal": 5.05},
      {"binder": "B2", "binding signal": 3.34},
      {"binder": "B3", "binding signal": 0.329},
      {"binder": "B4", "binding signal": 0.459},
      {"binder": "B5", "binding signal": 11.3},
      {"binder": "B6", "binding signal": 1.97},
      {"binder": "B7", "binding signal": 0.364},
      {"binder": "B8", "binding signal": 0.387},
      {"binder": "B9", "binding signal": 0.494},
      {"binder": "B10", "binding signal": 0.94},
      {"binder": "B11", "binding signal": 0.999},
      {"binder": "B12", "binding signal": 0.367},
      {"binder": "B13", "binding signal": 0.461},
      {"binder": "B14", "binding signal": 0.252},
      {"binder": "B15", "binding signal": 0.717},
      {"binder": "B16", "binding signal": 0.854},
      {"binder": "B17", "binding signal": 0.487},
      {"binder": "B18", "binding signal": 0.76},
      {"binder": "B19", "binding signal": 0.413},
      {"binder": "B20", "binding signal": 0.37},
      {"binder": "B21", "binding signal": 0.318},
      {"binder": "B22", "binding signal": 1.39}
    ]}
  ]
}
